The name of at least one read-out is uncertain.
Legend:
[1] = system: MRSA ATCC 33592; test: Minimum resensitizing concentration (MRC), modified broth microdilution; format: cell-based, S. aureus; details: meropenem at 4 μg/ml
Method: (§1) For these activity tests, AMOXICILLIN® was used in combination with clavulanic acid (a.k.a., AUGMENTIN®), CEFAZOLIN®, and MEROPENEM® (an ultra-broad-spectrum carbapenem). […] To assess activity of each analog as a resistance-modifying agent (RMA), a modified broth microdilution assay was used. Briefly, this involves incubating MRSA with 2-fold serial dilutions of a compound in the presence of each individual antibiotic at its Clinical Laboratory Standards Institutes (CLSI)-defined sensitive concentration. For AMOXICILLIN®/clavulanic acid, this concentration is 4/2 μg/ml (8-fold potentiation), for CEFAZOLIN®, 8 μg/ml (16-fold potentiation) and for MEROPENEM®, 4 μg/ml (4-fold potentiation). Following overnight incubation, plates were examined for bacterial growth, or lack thereof. Compounds were tested at concentrations ranging from 0.5-32 μg/ml. […] The half growth inhibitory concentration (GI50) of each analog was determined by fitting the data using KaleidaGraph (v4.1.1, Synergy Software).
(§2) A modified broth microdilution assay was employed by incubating MRSA (ATCC: BAA-44) with Of1 in 2-fold series dilution in the presence of individual antibiotics at the highest sensitive concentration at 37° C. overnight. […] The MRC values were also determined for another three MRSA strains. […] Furthermore, the mammalian toxicity of Of1 was evaluated using human liver hepatocellular carcinoma HepG2 cell line in CellTiter Glo™ mammalian viability assay (Promega).
(§3) MRC screens were performed as follows: antibiotic MIC values where S. aureus is considered susceptible were determined from the CLSI handbook supplement. Analogs of Of1 were diluted to 5 mg/ml in DMSO. Antibiotic was prepared at twice the intended final concentration in Mueller Hinton Broth (MHB). For amoxicillin/clavulanic acid, the initial concentration was 8/4 μg/ml, for meropenem 8 μg/ml and for cefazolin 16 μg/ml. 50 μl of the antibiotic containing media was added to each well of 96 well plates and 100 μl was added to the top row. 1.28 μl of 5 mg/ml alkaloid solution was added to the top row of each plate to afford a concentration of 64 μg/ml in the top row of each plate and two fold serial dilutions were performed down the columns. Once the plates were prepared, a day culture of MRSA was diluted to OD600 0.002 and 50 μl was added to each well. The final concentration of MRSA was OD600 0.001, the final concentration of amoxicillin/clavulanic acid was 4/2 μg/ml, the final concentration of meropenem was 4 μg/ml the final concentration of cefazolin was 8 μg/ml, and the highest concentration of Of1 analog tested was 32 μg/ml. Plates were incubated overnight at 37° C. with shaking. The MRC value was determined as the concentration of Of1 analog in the presence of antibiotic at which there was no observable overnight growth.

[2] = system: MRSA ATCC BAA-44; test: as above; format: cell-based, S. aureus; details: for MRC amox/clav: amoxicillin/clavulanic acid at 4/2 μg/ml; for MRC cefazolin: cefazolin at 8 μg/ml; for MRC methicillin: in presence of methicillin
Method: as §1, §2, §3

SMILES	MRC meropenem [1]	MRC amox/clav [2]	MRC cefazolin [2]	MRC methicillin [2]
C=C1CCC[C@@H]2Nc3ccc(Br)cc3[C@]12CCNC(=O)OCc1ccccc1 (stereo in doubt) [Cpd 10a, Benzyl N-[2-(6-bromo-4-methylidene-2,3,4,4a,9,9a-hexahydro-1H-carbazol-4a-yl)ethyl]carbamate]	>32 µg/mL	>32 µg/mL	>32 µg/mL	>32 µg/mL
C=C1CCC[C@@H]2Nc3c(F)cc(Br)cc3[C@]12CCNC(=O)OCc1ccccc1 (stereo in doubt) [Cpd 10b, Benzyl N-[2-(6-bromo-8-fluoro-4-methylidene-2,3,4,4a,9,9a-hexahydro-1H-carbazol-4a-yl)ethyl]carbamate]	>32 µg/mL	>32 µg/mL	>32 µg/mL	>32 µg/mL
C=C1CCC[C@@H]2Nc3ccc(Br)cc3[C@]12CCN (stereo in doubt) [Cpd 11a, 2-(6-Bromo-4-methylidene-2,3,4,4a,9,9a-hexahydro-1H-carbazol-4a-yl)ethan-1-amine]	32 µg/mL	32 µg/mL	32 µg/mL	16 µg/mL
C=C1CCC[C@@H]2Nc3c(F)cc(Br)cc3[C@]12CCN (stereo in doubt) [Cpd 11b, 2-(6-Bromo-8-fluoro-4-methylidene-2,3,4,4a,9,9a-hexahydro-1H-carbazol-4a-yl)ethan-1-amine]	16 µg/mL	>32 µg/mL	32 µg/mL	32 µg/mL
C=C1CCC[C@@H]2Nc3ccc(Br)cc3[C@]12CCNC(=O)CCCC (stereo in doubt) [Cpd 12b, N-[2-(6-bromo-4-methylidene-2,3,4,4a,9,9a-hexahydro-1H-carbazol-4a-yl)ethyl]pentanamide]	32 µg/mL	>32 µg/mL	>32 µg/mL	>32 µg/mL
C=C1CCC[C@@H]2Nc3ccc(Br)cc3[C@]12CCNS(=O)(=O)c1ccccc1 (stereo in doubt) [Cpd 12d, N-[2-(6-bromo-4-methylidene-2,3,4,4a,9,9a-hexahydro-1H-carbazol-4a-yl)ethyl]benzenesulfonamide]	16 µg/mL	8 µg/mL	8 µg/mL	32 µg/mL
C=C1CCC[C@@H]2Nc3ccc(Br)cc3[C@]12CCNC(=O)OCC(Cl)(Cl)Cl (stereo in doubt) [Cpd 12p, 2,2,2-trichloroethyl N-[2-(6-bromo-4-methylidene-2,3,4,4a,9,9a-hexahydro-1H-carbazol-4a-yl)ethyl]carbamate]	>32 µg/mL	>32 µg/mL	>32 µg/mL	>32 µg/mL
C=C1CCC[C@@H]2Nc3ccc(Br)cc3[C@]12CCNS(=O)(=O)c1ccc(Cl)cc1 (stereo in doubt) [Of1, N-(2-(6-Bromo-4-methylene-2,3,4,4a,9,9a-hexahydro-1H-carbazol-4a-yl)ethyl)-4-chlorobenzenesulfonamide]	4 µg/mL	4 µg/mL	4 µg/mL	8 µg/mL
C=C1CCCC2N(C)c3ccc(Br)cc3C12CCNS(=O)(=O)c1ccc(Cl)cc1 (stereo not shown) [Cpd 1a, N-(2-(6-Bromo-9-methyl-4-methylene-2,3,4,4a,9,9a-hexahydro-1H-carbazol-4a-yl)ethyl)-4-chlorobenzenesulfonamide]	>32 µg/mL	>32 µg/mL	>32 µg/mL	>32 µg/mL
C=C1CCCC2N(S(=O)(=O)c3ccc(Cl)cc3)c3ccc(Br)cc3C12CCNS(=O)(=O)c1ccc(Cl)cc1 (stereo not shown) [Cpd 1b, N-{2-[6-bromo-9-(4-chlorobenzenesulfonyl)-4-methylidene-2,3,4,4a,9,9a-hexahydro-1H-carbazol-4a-yl]ethyl}-4-chlorobenzene-1-sulfonamide]	>32 µg/mL	>32 µg/mL	>32 µg/mL	>32 µg/mL
C=C1CCCC2N(C(=O)c3ccc(Cl)cc3)c3ccc(Br)cc3C12CCNS(=O)(=O)c1ccc(Cl)cc1 (stereo not shown) [Cpd 1c, N-{2-[6-bromo-9-(4-chlorobenzoyl)-4-methylidene-2,3,4,4a,9,9a-hexahydro-1H-carbazol-4a-yl]ethyl}-4-chlorobenzene-1-sulfonamide]	>32 µg/mL	>32 µg/mL	>32 µg/mL	>32 µg/mL
C=C1CCCC2N(C(=O)OCc3ccccc3)c3ccc(Br)cc3C12CCNS(=O)(=O)c1ccc(Cl)cc1 (stereo not shown) [Cpd 1d, benzyl 6-bromo-4a-[2-(4-chlorobenzenesulfonamido)ethyl]-4-methylidene-2,3,4,4a,9,9a-hexahydro-1H-carbazole-9-carboxylate]	>32 µg/mL	>32 µg/mL	>32 µg/mL	>32 µg/mL
C=CCN1c2ccc(Br)cc2C2(CCNS(=O)(=O)c3ccc(Cl)cc3)C(=C)CCCC12 (stereo not shown) [Cpd 1e, N-{2-[6-bromo-4-methylidene-9-(prop-2-en-1-yl)-2,3,4,4a,9,9a-hexahydro-1H-carbazol-4a-yl]ethyl}-4-chlorobenzene-1-sulfonamide]	>32 µg/mL	>32 µg/mL	>32 µg/mL	>32 µg/mL
C=C1CCCC2N(CCOCCOCCOCCO)c3ccc(Br)cc3C12CCNS(=O)(=O)c1ccc(Cl)cc1 (stereo not shown) [Cpd 1f, N-{2-[6-bromo-9-(2-{2-[2-(2-hydroxyethoxy)ethoxy]ethoxy}ethyl)-4-methylidene-2,3,4,4a,9,9a-hexahydro-1H-carbazol-4a-yl]ethyl}-4-chlorobenzene-1-sulfonamide]	>32 µg/mL	>32 µg/mL	>32 µg/mL	>32 µg/mL
C=C1CCCC2Nc3ccc(Br)cc3C12CCN(C)S(=O)(=O)c1ccc(Cl)cc1 (stereo not shown) [Cpd 1g, N-[2-(6-bromo-4-methylidene-2,3,4,4a,9,9a-hexahydro-1H-carbazol-4a-yl)ethyl]-4-chloro-N-methylbenzene-1-sulfonamide]	>32 µg/mL	>32 µg/mL	>32 µg/mL	>32 µg/mL
C=C1CCCC2Nc3ccc(Br)cc3C12CCN(C(=O)c1ccc(Cl)cc1)S(=O)(=O)c1ccc(Cl)cc1 (stereo not shown) [Cpd 1i, N-[2-(6-bromo-4-methylidene-2,3,4,4a,9,9a-hexahydro-1H-carbazol-4a-yl)ethyl]-4-chloro-N-(4-chlorobenzenesulfonyl)benzamide]	>32 µg/mL	>32 µg/mL	>32 µg/mL	>32 µg/mL
C=C1CCCC2Nc3ccc(Br)cc3C12CCN(C(=O)OCc1ccccc1)S(=O)(=O)c1ccc(Cl)cc1 (stereo not shown) [Cpd 1j, benzyl N-[2-(6-bromo-4-methylidene-2,3,4,4a,9,9a-hexahydro-1H-carbazol-4a-yl)ethyl]-N-(4-chlorobenzenesulfonyl)carbamate]	>32 µg/mL	>32 µg/mL	>32 µg/mL	>32 µg/mL
C=CCN(CCC12C(=C)CCCC1Nc1ccc(Br)cc12)S(=O)(=O)c1ccc(Cl)cc1 (stereo not shown) [Cpd 1k, N-[2-(6-bromo-4-methylidene-2,3,4,4a,9,9a-hexahydro-1H-carbazol-4a-yl)ethyl]-4-chloro-N-(prop-2-en-1-yl)benzene-1-sulfonamide]	>32 µg/mL	>32 µg/mL	>32 µg/mL	>32 µg/mL
C=C1CCCC2N(C(=O)OCc3ccccc3)c3ccc(Br)cc3C12CCN(C(=O)OCc1ccccc1)S(=O)(=O)c1ccc(Cl)cc1 (stereo not shown) [Cpd 1l, benzyl 4a-(2-{N-[(benzyloxy)carbonyl]4-chlorobenzenesulfonamido}ethyl)-6-bromo-4-methylidene-2,3,4,4a,9,9a-hexahydro-1H-carbazole-9-carboxylate]	>32 µg/mL	>32 µg/mL	>32 µg/mL	>32 µg/mL
